According to PubChem BioAssay AID485364 (National Center for Advancing Translational Sciences (NCATS), 2010):
Out of some 360,000 compounds screened, about 11,000 (3.1%) were called active. The inconclusive results got no clear call from the source; some entries with a clear call stand among them for comparison. Calls follow the shape of the dose curve; as a rule, active = well fitted inhibition curve with a large enough effect; inconclusive = small, poorly fitted or top-dose-only effect; inactive = no such curve, though single readings can be large or run the other way. Potencies of inconclusive entries are left out as doubtful fits.

These molecules were tested against Schistosoma mansoni thioredoxin glutathione reductase (TGR) (UniProt Q962Y6) (assay: qHTS Assay for the Inhibitors of Schistosoma Mansoni Peroxiredoxins). Conditions: purified TGR, DTNB reduction, TNB absorbance 405 nm; activity change, negative = inhibition: at 114 µM (top of the series) unless noted.
Summary of the method: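 Kinetic colorimetric format: TGR-catalysed, NADPH-driven DTNB reduction monitored via TNB absorbance. Enzyme dispensed at 20 nM; compound exposure 15 min at room temperature before reaction start.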
% is scaled to controls: 0 for no effect and ±100 for the full control effect; potency is read from the fitted curve at half-maximal effect; tags tell the direction and shape of the fitted curve.
Also: nearly all actives have a fitted effect of over 60% in size.

Structure (SMILES) | Potency | activity change, negative = inhibition
CC(C)(C)CN1CCNC(=O)C1CC(=O)NCCc1ccccc1C(F)(F)F (centres undefined) | inconclusive [inhibitor, partial curve] | –
CC12CCCCC1(O)[N+](=O)C1=C(CCCC1)N2[O-] (centres undefined) | inconclusive [inhibitor, single point] | –
O=C(NC1CCCCC1)C(c1ccc(F)cc1)N(Cc1ccco1)C(=O)c1ccccn1 (centres undefined) | inconclusive [inhibitor, partial curve] | –
O=C(CCCn1c(=O)c2cccn2c2ccccc21)NCc1ccccc1Br | – | inactive: 0.162%
COc1ccc2cc(C3CC(c4ccco4)=NN3S(=O)(=O)c3ccccc3)c(Cl)nc2c1 (centres undefined) | – | inactive: -0.35%
COc1ccc(C2/C(=C(/O)c3ccccc3)C(=O)C(=O)N2CCCN2CCOCC2)cc1 (centres undefined) | inconclusive [inhibitor, partial curve] | –
Cc1nc(C(=O)NNC(=O)c2cccc(Cl)c2)c(C(F)(F)F)o1 | inconclusive [inhibitor, single point] | –
NC(Cc1ccc2nonc2c1)C(=O)O (centres undefined) | – | inactive: -3.17%
CCCn1c(SCC(=O)Nc2cc(Cl)ccc2Cl)n[nH]c1=O | – | inactive: 7.86%
O=C(NCc1ccco1)c1sc2cccc(F)c2c1Cl | active: 39.8 µM | –
C[C@@H](NC(=O)[C@@H]1Cc2ccccc2CN1)C(=O)NCc1ccco1 | inconclusive [inhibitor, partial curve] | –
O=C(CCS(=O)(=O)c1cccc2nonc12)NC1CCCCCC1 | active: 44.7 µM | –
COc1ccc(S(=O)(=O)n2ccnc2C)c(C)c1C | – | inactive: 5.6%
COC(=O)c1ccc2c(=O)[nH]c(CSc3nc(-c4ccc(F)cc4)cs3)nc2c1 | – | inactive: 0.263%
O=C(Nc1cccc(NC(=O)c2ccccc2[N+](=O)[O-])n1)c1ccccc1[N+](=O)[O-] | – | inactive: 0%
CCc1ccc(NC(=O)C(=O)NCC(c2cccnc2)N2CCc3ccccc3C2)cc1 (centres undefined) | – | inactive: -10.5%
Cc1cccc(C)c1NC(=S)N/N=C/c1ccc(C(=O)O)cc1 | inconclusive [inhibitor, full curve, poor fit] | –
CC(C)CN1CCC(=O)N([C@H](CSc2ccc(Br)cc2)Cc2ccccc2)CC1 | active: 6.31 µM | –
Cc1nc(-c2ccccc2)sc1CCNC(=O)C(=O)Nc1ccc(F)c(Cl)c1 | inconclusive [inhibitor, single point] | –
CC(=O)Nc1cc(C(C)(C)C)c(O)c(C(C)(C)C)c1 | inconclusive [inhibitor, partial curve, poor fit] | –
COc1ccccc1/C=C/C=N/NC(=O)c1cc(-c2ccc(C)o2)[nH]n1 | inconclusive [inhibitor, partial curve] | –
CCOC(=O)C1(CCOc2ccccc2)CCN(Cc2cccc(O)c2)CC1 | inconclusive [inhibitor, full curve, poor fit] | –
O=C(Nc1ccc(Cl)cc1N1CCOCC1)C1CCCO1 (centres undefined) | – | inactive: 1.66%
CCc1cccc(NC(=O)CCc2c(C)nn(-c3ccc(N4CCOCC4)nn3)c2C)c1 | – | inactive: -10.7%
COc1ccc(/C=C/C2=NNC(=O)CC2)cc1 | – | inactive: 9.9%

Structure (SMILES) | Potency | activity change, negative = inhibition
C/C=C1/C[C@@H](C)[C@](O)(CO)C(=O)OCC2=CCN3CC[C@@H](OC1=O)[C@@H]23 | inconclusive [inhibitor, partial curve] | –
COC(=O)c1ccc(N2C(=O)CC(N3CCC(n4c(=O)[nH]c5ccccc54)CC3)C2=O)cc1 (centres undefined) | active: 35.5 µM | –
CC(=O)c1cc(NC(=O)c2cccc(C(F)(F)F)c2)c(=O)oc1C | active: 35.5 µM | –
O=C(N/N=C/c1ccc(OCc2ccccc2)cc1)c1ccncc1 | – | inactive: -3.09%
CC(=O)c1ccc(NC(=O)C2=CC(c3ccc(C)cc3)=NS(=O)(=O)N2C)cc1 | – | inactive: 3.14%
O=C(N/N=C/c1ccco1)c1cccc(NC(=O)c2ccccc2Cl)c1 | inconclusive [inhibitor, partial curve] | –
CC(NC(=O)Nc1ccc([N+](=O)[O-])cc1)C(c1cccs1)N1CCCC1 (centres undefined) | inconclusive [inhibitor, partial curve] | –
O=c1[nH]c(=O)n(-c2cccc(F)c2)c(O)c1/C=C1\C=Nc2ccccc21 | active: 35.5 µM | –
Cc1ccc(S(=O)(=O)Cc2nc(-c3ccc(C(=O)NCc4ccccc4C)cc3)oc2C)cc1 | inconclusive [inhibitor, partial curve] | –
COc1ccc(CN2C(=O)C(CC(C)C)Nc3ncnc(N4CCN(c5ccccc5)CC4)c32)cc1 (centres undefined) | inconclusive [inhibitor, partial curve] | –
O=C(Nc1cccc(C(F)(F)F)c1)c1cccnn1 | active: 89.1 µM | –
O=C(Nc1cccc(F)c1)c1c(F)c(F)c(F)c(F)c1F | – | inactive: -3.12%
Cc1onc(-c2ccccc2)c1C(=O)NC(=S)NNC(=O)c1cccnc1 | – | inactive: -0.605%
O=C(O)CN1C(=O)/C(=C/c2ccc(SCc3ccccc3)o2)SC1=S | active: 10 µM | –
CCN(CC(=O)Nc1cc(Cl)ccc1C)C(=O)C1COc2ccccc2O1 (centres undefined) | active: 20 µM | –
Fc1ccccc1NC(=S)Nn1cnnc1 | inconclusive [inhibitor, single point] | –
Nc1c(N(Cc2ccco2)C(=O)COc2ccccc2Cl)c(=O)[nH]c(=O)n1Cc1ccccc1 | active: 50.1 µM | –
O=c1[nH]c2ccccc2nc1-c1ccccc1 | – | inactive: 26.9%
O=C(NNC1=C(C(=O)C(F)(F)F)CCC1)c1ccncc1 | inconclusive [inhibitor, full curve, poor fit] | –
CC(C)Sc1oc(-c2ccco2)nc1S(=O)(=O)c1ccc(F)cc1 | active: 17.8 µM | –
O=C(/C=C\N1CCOCC1)c1ccc(Br)cc1 | active: 15.8 µM | –
O=C(Nc1nc2c(s1)C(=O)CCC2)c1ccccc1 | – | inactive: 8.96%
Cn1nnnc1Sc1ncnc2scc(-c3cccc(S(C)(=O)=O)c3)c12 | inconclusive [inhibitor, partial curve] | –
CCOC(=O)N1CCC(NC(=O)c2ccc(CO)c(C(=O)NC3CCN(C(=O)OCC)CC3)c2)CC1 | inconclusive [inhibitor, single point] | –
